# Measurements reported in publication PMC4336329 (PLoS ONE, 2015).
# In all, about 310,000 compounds went through this assay and about 2,200 (0.71%) showed an effect of 50% or more. The effect is printed as a negative number. The list shows a part of the results.
# Target: human ether-à-go-go-related gene (hERG) potassium channel (human, UniProt Q12809)
# Experiment: primary screen, population patch clamp on CHO cells stably expressing hERG
# human ether-à-go-go-related gene (hERG) potassium channel, sequence (Q12809 whole entry, looked up): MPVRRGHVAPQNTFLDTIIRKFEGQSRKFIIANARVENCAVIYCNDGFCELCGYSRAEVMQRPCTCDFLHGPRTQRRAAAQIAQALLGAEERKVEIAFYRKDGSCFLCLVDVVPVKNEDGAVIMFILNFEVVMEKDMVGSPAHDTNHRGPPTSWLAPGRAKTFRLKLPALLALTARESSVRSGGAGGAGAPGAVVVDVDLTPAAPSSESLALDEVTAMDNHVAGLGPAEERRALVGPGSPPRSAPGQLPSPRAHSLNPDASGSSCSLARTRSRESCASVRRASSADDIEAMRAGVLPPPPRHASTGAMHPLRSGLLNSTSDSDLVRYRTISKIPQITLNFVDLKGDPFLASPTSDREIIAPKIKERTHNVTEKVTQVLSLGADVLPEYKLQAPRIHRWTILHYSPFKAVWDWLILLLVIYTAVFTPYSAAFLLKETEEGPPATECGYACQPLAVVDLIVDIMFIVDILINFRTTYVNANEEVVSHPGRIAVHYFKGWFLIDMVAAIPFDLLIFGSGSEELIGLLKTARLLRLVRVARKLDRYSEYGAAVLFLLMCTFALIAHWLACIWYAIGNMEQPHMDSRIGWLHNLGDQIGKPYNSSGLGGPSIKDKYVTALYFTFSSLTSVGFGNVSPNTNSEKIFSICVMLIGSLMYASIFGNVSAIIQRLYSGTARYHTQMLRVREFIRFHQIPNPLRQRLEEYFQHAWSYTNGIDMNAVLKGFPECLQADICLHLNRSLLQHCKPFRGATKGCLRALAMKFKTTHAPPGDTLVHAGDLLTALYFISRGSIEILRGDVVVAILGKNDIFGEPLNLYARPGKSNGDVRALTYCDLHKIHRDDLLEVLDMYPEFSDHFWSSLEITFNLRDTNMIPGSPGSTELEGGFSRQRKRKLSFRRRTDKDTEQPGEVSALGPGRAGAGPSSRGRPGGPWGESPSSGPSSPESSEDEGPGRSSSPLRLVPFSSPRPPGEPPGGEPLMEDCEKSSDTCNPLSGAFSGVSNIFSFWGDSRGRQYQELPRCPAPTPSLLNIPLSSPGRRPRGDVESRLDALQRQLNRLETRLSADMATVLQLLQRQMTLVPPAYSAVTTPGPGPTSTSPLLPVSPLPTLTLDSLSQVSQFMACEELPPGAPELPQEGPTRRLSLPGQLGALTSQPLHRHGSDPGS
row,Structure (SMILES),"hERG current change (%, negative = inhibition) at 1uM [%]"
1,CN(Cc1ccccc1)C1(CNC(=O)CCC(F)(F)F)Cc2ccccc2C1,8.69
2,COc1ccccc1C(=O)N1CCN(Cc2cn[nH]c2-c2ccc(F)cc2F)CC1,9.84
3,CCCCn1c(N)c(N(Cc2ccccc2OC)C(=O)COc2ccc(F)cc2Cl)c(=O)[nH]c1=O,14.7
4,O=C(NCCCN1CCCC1=O)C1CCN(S(=O)(=O)c2ccccc2)CC1,22.1
5,NC(=O)CSc1nnc(COc2ccccc2)n1N,14.1
6,CNC(=S)Nc1cc(OC)ccc1OC,7.4
7,CCN(CCn1cccn1)C(=O)CCc1nnc(C2(c3ccc(Cl)cc3)CCC2)o1,13
8,Cc1cc(NC(=O)c2ccc(C#N)cc2)on1,9.35
9,Cc1c(C(=O)O)oc2c1/C(=N\O)CCC2,15.9
10,COc1ccccc1CNC(=O)C(CCSC)NS(=O)(=O)c1ccc2c(c1)oc(=O)n2C (centres unmarked),15.7
11,CCOCCCN(C(=O)CCC(=O)Nc1cc(C)on1)C(C(=O)NC(C)(C)C)c1ccccc1Cl (centres unmarked),15.5
12,Cc1ccc(/C=C/c2ccc(N(C)C)cc2)[n+](C)c1.[I-],-2.19
13,Cc1ccc(NC(=O)N(CCCN2CCOCC2)Cc2cc3cc4c(cc3[nH]c2=O)OCO4)cc1,-0.107
14,COc1ccc(OC)c(NC(=S)NCCN2CCOCC2)c1,4.52
15,O=C(NCc1ccncc1)C(=O)N/N=C/c1ccccc1OCc1ccccc1,14.5
16,CCOC(=O)N1CCC(N2Cc3cccc(C(=O)Nc4ccccc4OC)c3C2=O)CC1,-41.4
17,NNC(=O)c1cc2ccccc2[nH]1,13.9
18,CC(C)CN(C(=O)COC(=O)c1nc(Cl)ccc1Cl)C1CCS(=O)(=O)C1 (centres unmarked),13
19,Cc1ccc(C(=O)Nc2ccc3c(c2)OCO3)cc1S(=O)(=O)N1CCOCC1,9.32
20,O=C(Nc1nnc(-c2ccc3c(c2)CCCC3)o1)c1ccccc1,-1.81
21,CN(c1ccccc1)S(=O)(=O)c1cccc(NC(=O)Cc2n[nH]c(=O)c3ccccc23)c1,1.58
22,Cc1cc(/C=N/Nc2nc(N3CCOCC3)nc(N3CCOCC3)n2)c(C)n1-c1ccccc1,8.17

row,Structure (SMILES),"hERG current change (%, negative = inhibition) at 1uM [%]"
1,CCOc1ncccc1C(=O)OCC(=O)NCc1ccc2c(c1)OCO2,2.77
2,O=c1c2ccccc2nc(-c2ccccc2Cl)n1-c1ccc(O)cc1,11.6
3,O=C(O)[C@H]1Cc2ccccc2CN1S(=O)(=O)c1ccc(F)cc1,14.4
4,Cc1csc(/N=C/N(C)C)c1C#N,11.2
5,Cc1csc(NC(=O)CSc2nc(C(C)C)nc3ccccc23)n1,6.41
6,COc1cc(NC(=O)c2ccc(Cl)cc2)c(Cl)cc1NC(=O)c1cccnc1,11.5
7,Cc1ccc(C)c(S(=O)(=O)N2CCC(c3nc4c(nnn4Cc4ccc(F)cc4)c(=O)[nH]3)CC2)c1,5.48
8,COc1ccc2cc(CCNC(=O)c3ccc(S(=O)(=O)N4CCCC4)cc3)c(=O)[nH]c2c1,6.9
9,COc1cccc(C(=O)/C=C/Nc2cc(C)ccc2O)c1,-3.17
10,COc1ccc(NC(=O)CN(C)S(=O)(=O)c2ccc(C)cc2)c([N+](=O)[O-])c1,-5.97
11,O=C(O)c1ccc(CSc2nnc(-c3ccco3)n2-c2ccccc2)cc1,7.2
12,CN1CCN(C(=O)c2ccc3c(=O)n(CCc4ccccc4)c(=S)[nH]c3c2)CC1,1.78
13,COc1ccc(C2CC(c3ccc(Br)cc3)=NN2C(=O)c2cccnc2)cc1 (centres unmarked),-9.46
14,COc1ccc2c(c1)c1nc3n(c(=O)c1n2CC(=O)Nc1ccccc1)CCCS3,22.2
15,Cc1cccc(C(=O)NC2=NCCS2)c1,14.1
16,NC(=O)C1CC(=O)N(c2ccc(OCc3ccccc3Cl)cc2)C1 (centres unmarked),4.57
17,CCCN1C2CCCC1CC(NC(=O)c1ccccc1Br)C2 (centres unmarked),2.99
18,N#CC(c1ccc(Cl)nn1)c1c(F)cccc1Cl (centres unmarked),13.2
19,COc1ccc(NC(=O)CCC(=O)OCc2ccc(C(=O)Oc3ccc(Cl)cc3)cc2)cc1,7.13
20,COc1ccc(OC)c(Nc2ncnc3ccccc23)c1.Cl,2.1
21,Cc1ccc(NC(=O)CCNS(=O)(=O)c2ccc3c(c2)CCC(=O)N3)c(Br)c1,-9.97
22,Cc1ccc(-c2nn(-c3ccccc3)cc2/C=C/C(=O)Nc2cccc(S(N)(=O)=O)c2)cc1,5.51

row,Structure (SMILES),"hERG current change (%, negative = inhibition) at 1uM [%]"
1,O=S(=O)(Nc1ccc(S(=O)(=O)Nc2nccs2)cc1)c1ccc2c(c1)OCCO2,-10.1
2,CCN(CC)S(=O)(=O)c1ccc(OC)c(NC(=S)Nc2cc(C)ccc2C)c1,6.93
3,O=C(CN1C(=O)/C(=C\c2cccc(Br)c2)Oc2ccccc21)NCCCN1CCOCC1,0.939
4,S=C(Nc1ccc(Cl)c(Cl)c1)N1CCN(c2ccccn2)CC1,9.81
5,O=C(CSc1nnc(CNC(=O)c2c(F)cccc2Cl)o1)c1ccccc1,3.39
6,CNC(=S)NNC(=O)c1cccn(Cc2ccc(Cl)c(Cl)c2)c1=O,4.85
7,CCOC(=O)C1CCCN(C(=O)c2cccc(N3C(=O)c4ccccc4C3=O)c2)C1 (centres unmarked),1.91
8,Cc1cc(-c2ccco2)n2c(nc3ccccc32)c1C#N,-2.45
9,COc1ccccc1-c1nnc(N)s1,8.73
10,CCCc1ccc(OCC(=O)Nc2cc(S(=O)(=O)CC)ccc2O)cc1,-30.9
11,CC(=O)Nc1ccc(S(=O)(=O)N2CCCN(c3nc(C)cc(C)c3C#N)CC2)cc1,1.96
12,O=C(C1CCC(=O)N(C2CC2)C1)N1CCN(c2ccccc2Cl)CC1 (centres unmarked),16.1
13,O=S(=O)(NCc1cccnc1)c1cccn1-c1ncc(C(F)(F)F)cc1Cl,3.48
14,CCOC(=O)c1ccc(NC(=O)N2CCc3ccccc32)cc1,-3.34
15,Cc1cc(C(=O)NC(=S)Nc2cccc(C(=O)O)c2C)ccc1[N+](=O)[O-],17.7
16,COCCN(C(=O)COC(=O)COc1ccc(Cl)c(C)c1)c1c(N)n(Cc2ccccc2)c(=O)[nH]c1=O,6.71
17,COc1ccccc1NC(=O)Nc1ccc2[nH]c(=O)[nH]c2c1,12.1
18,Cc1ccc(C(C)C)c(OCC(=O)NN=C2CCCCCCC2)c1,1.14
19,CCC(C)OC(=O)c1c(N)n(Cc2cccs2)c2nc3ccccc3nc12 (centres unmarked),5.19
20,O=[N+]([O-])c1ccc2c(c1)CNc1ccccc1O2,13.2
21,COc1ccc(OCc2cc(C(=O)NCC(C)(C)N3CCOCC3)no2)c(Cl)c1,0.582
22,O=c1c2ccccc2nc2n1CCO2,8.41

row,Structure (SMILES),"hERG current change (%, negative = inhibition) at 1uM [%]"
1,COC(=O)c1cc(S(=O)(=O)NCC2CCN(Cc3ccc(C)cc3)CC2)cn1C,-16.9
2,COC(=O)N(c1ccccc1)P1(=S)OCCO1,17.4
3,CCCSc1ccc([C@@H]2[C@H]3C(=O)N(CC)C(=O)[C@H]3[C@]3(C(=O)OC)CCCN23)cc1.O=C(O)C(F)(F)F,2.39
4,COc1ccccc1S(=O)(=O)Cc1ccc(C(=O)N2CCN(c3ccccc3)CC2)o1,-14.5
5,CCCCNC(=S)NNC(=O)c1cccnc1,13.8
6,CCOc1ccc(S(=O)(=O)N2CCN(C)CC2)c(C)c1C,10.2
7,Nc1ccccc1-[n+]1c(-c2ccccc2)cc(-c2ccccc2)cc1-c1ccccc1.[O-][Cl+3]([O-])([O-])[O-],0.0928
8,O=C(Cc1c[nH]c2ccccc12)Nc1cccc(S(=O)(=O)N2CCCCC2)c1,3.12
9,O=C1CCCN1c1ccc(S(=O)(=O)N2CCCCC2)cc1[N+](=O)[O-],10.9
10,COc1cccc(C(=O)CC(C#N)c2ccc(F)cc2)c1 (centres unmarked),12.5
11,CCCn1c(/N=C/c2cc(OC)ccc2O)nc2ccccc21,10.5
12,CSCCC(NC(=O)c1ccco1)C(=O)N1CCC(C(N)=O)CC1 (centres unmarked),9.55
13,CC1(C)Cc2c(sc3ncn(N)c(=N)c23)CO1,13.1
14,COCCOC(=O)c1c(C)oc2ccc(OC(=O)c3ccc4c(c3)OCO4)cc12,21.1
15,C/C(=N\NC(=O)c1cccc(N2CCCC2=O)c1)c1ccc(N)cc1,22.4
16,Cc1cccc(CN2CCCC(C(=O)c3ccc4c(c3)OCO4)C2)n1 (centres unmarked),-16.8
17,CN(C(=O)COC(=O)c1ccc(Cl)c(N)c1)c1ccccc1,9.13
18,Cc1cccnc1NC(=O)C1CCC1,16.4
19,COCCN(C(=O)CSc1n[nH]c(-c2ccc(OC)cc2)n1)c1c(N)n(Cc2ccccc2)c(=O)[nH]c1=O,10.3
20,Cc1ccc(S(=O)(=O)Cn2nnnc2C(CC(C)C)N2CCN(c3ccccc3)CC2)cc1 (centres unmarked),21.5
